Drawing on the supplement of paper PMC9446081, this text covers relative growth for 59 compounds.

Screen size: about 39,000 compounds; about 220 (0.56%) showed activity. This is one part of the list.
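Note: static incubation at 37 °C against the wild-type strain, values averaged over two biological replicates.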

The test system of this assay is Escherichia coli K-12 BW25113. The assay is described as follows: relative growth (OD600 normalised to plate interquartile mean) (fraction); higher = less growth inhibition, active = 0.2 or less. Particulars: 50 µM; LB; incubation time: overnight (16-24 h).
As to `CCNC(=O)C[C@@H]1C=C[C@H](NC(=O)C2CC2)[C@H](CO)O1`, the relative growth is inactive: 1.01. In the case of `C[C@@H]1CN([C@H](C)CO)C(=O)c2cccc(NC(=O)Nc3ccc(C(F)(F)F)cc3)c2O[C@H]1CN(C)S(=O)(=O)c1ccc(F)cc1`, the relative growth was inactive: 0.863.

As for `C[C@H](CO)N1C[C@H](C)[C@H](CN(C)Cc2ccc(C(F)(F)F)cc2)OCCCC[C@H](C)Oc2ccc(NC(=O)NC3CCCCC3)cc2C1=O`, the relative growth was inactive: 1. Consider `Cc1ccc(S(=O)(=O)N(C)C[C@H]2Oc3ccc(NS(=O)(=O)c4ccc(F)cc4)cc3C(=O)N([C@@H](C)CO)C[C@@H]2C)cc1`, for which the relative growth is inactive: 0.996. On to `NC(=O)[C@H]1[C@@H]2C(=O)O[C@@H](c3ccccc3)[C@@H](c3ccccc3)N2[C@@H](c2ccc(O)cc2)[C@]12C(=O)Nc1ccc(C#CC3(O)CCCCCC3)cc12`, for which the relative growth was inactive: 1.02. To `COc1cc2c(cc1OC)C(=O)NCC2` belongs inactive: 1.01; to `C[C@@H]1CCCCO[C@@H](CN(C)C(=O)Cc2ccccc2)[C@H](C)CN([C@@H](C)CO)C(=O)c2cc(NC(=O)Nc3cccc4ccccc34)ccc2O1`, inactive: 1.03. Take `COc1ccc(NC(=O)N(C)C[C@@H]2OCCCC[C@@H](C)Oc3ccc(NC(=O)CCC(F)(F)F)cc3C(=O)N([C@@H](C)CO)C[C@H]2C)cc1`: the relative growth was inactive: 0.994. As to `COc1ccccc1CNC(=O)C[C@@H]1C[C@H]2c3cc(NC(=O)Nc4ccc(C(F)(F)F)cc4)ccc3O[C@H]2[C@H](CO)O1`, the relative growth is inactive: 0.998.

Take `Cc1ccc(S(=O)(=O)Nc2cccc3c2O[C@H](CN(C)S(=O)(=O)c2cccs2)[C@H](C)CN([C@H](C)CO)C3=O)cc1`: the relative growth was inactive: 0.937. For `C[C@H](CO)N1C[C@H](C)[C@@H](CN(C)S(C)(=O)=O)Oc2c(NC(=O)c3ccc(-c4nccs4)cc3)cccc2C1=O`, the relative growth was inactive: 0.99. With `C[C@@H]1CCCCO[C@H](CN(C)C(=O)CCC(F)(F)F)[C@@H](C)CN([C@@H](C)CO)C(=O)c2cc(NC(=O)CCC(F)(F)F)ccc2O1`, the relative growth was inactive: 1. As to `COc1ccc(-c2ccc3n(c2=O)C[C@@H]2[C@@H](CO)[C@H](C(=O)NCC4CC4)[C@H]3N2S(C)(=O)=O)cc1`, the relative growth was inactive: 0.991. As for `CCCNC(=O)N1C[C@H](O)COC[C@H]2O[C@H](CC(=O)N3CCN(C)CC3)CC[C@@H]21`, the figure is inactive: 1.02; as for `COc1cc2c(cc1OC)-c1onc(-c3ccc(OCCO[Si](C(C)C)(C(C)C)C(C)C)cc3)c1CCCN(C[C@@H](C)O)CC2`, inactive: 0.89.

Take `C[C@@H]1CN([C@H](C)CO)S(=O)(=O)c2ccc(C#Cc3ccncc3)cc2O[C@H]1CN(C)C(=O)c1ccncc1`: the relative growth was inactive: 0.977.

For `Cc1noc(C)c1S(=O)(=O)Nc1ccc2c(c1)C(=O)N([C@@H](C)CO)C[C@@H](C)[C@H](CN(C)C(=O)Nc1cccc3ccccc13)OCCCC[C@H](C)O2`, the relative growth is inactive: 1.03. `Cn1cnc(CCNC(=O)C[C@@H]2CC[C@@H]3[C@H](COC[C@@H](O)CN3C(=O)Nc3ccc(Cl)cc3)O2)c1`: the relative growth is inactive: 0.993. As for `COc1ccc(CN(C)C[C@H]2OCCCC[C@@H](C)Oc3ccc(NS(=O)(=O)c4ccc(C)cc4)cc3C(=O)N([C@@H](C)CO)C[C@H]2C)cc1`, the figure is inactive: 1.02; as for `O=C(C[C@@H]1CC[C@H]2[C@@H](COC[C@H](O)CN2S(=O)(=O)c2ccccc2F)O1)NCc1ccccc1F`, inactive: 1.02; as for `C[C@@H]1CN([C@H](C)CO)C(=O)Cc2cc(NC(=O)NC3CCCCC3)ccc2O[C@H]1CN(C)C(=O)Nc1ccc(C(F)(F)F)cc1`, inactive: 1.03.

With `Cc1ccc(S(=O)(=O)N(C)C[C@H]2Oc3ccc(NS(=O)(=O)c4ccc(F)cc4)cc3CC(=O)N([C@H](C)CO)C[C@H]2C)cc1`, the relative growth is inactive: 0.99. To `C[C@H]1CN([C@@H](C)CO)C(=O)Cc2cc(NC(=O)Cn3cnnn3)ccc2O[C@H]1CN(C)Cc1ccc(-c2ccccc2)cc1` belongs inactive: 0.961. To `COc1ccc(NC(=O)N(C)C[C@@H]2OCCCC[C@@H](C)Oc3ccc(NS(=O)(=O)c4ccccc4)cc3C(=O)N([C@H](C)CO)C[C@@H]2C)cc1` belongs inactive: 1.02; to `COc1ccccc1C(=O)Nc1ccc2c(c1)C(=O)N(C)[C@@H]1CC[C@H](CC(=O)NCCc3ccncc3)O[C@H]1CO2`, inactive: 0.995; to `Cc1noc(C)c1S(=O)(=O)Nc1ccc2c(c1)C(=O)N([C@H](C)CO)C[C@H](C)[C@@H](CN(C)Cc1ccc(Oc3ccccc3)cc1)O2`, inactive: 1.01. To `NNC(=O)COc1ccccc1` belongs inactive: 1.01; to `Cn1c(CN)nc2ccccc2c1=O`, inactive: 1.01.

For the compound `CN1C(=O)c2cc(NC(=O)Nc3ccccc3F)ccc2OC[C@@H]2O[C@H](CC(=O)NCc3ccc(-c4ccccc4)cc3)CC[C@H]21`, the relative growth was inactive: 1.07. Regarding `Cc1noc(C)c1S(=O)(=O)Nc1ccc2c(c1)CC(=O)N([C@H](C)CO)C[C@@H](C)[C@H](CN(C)S(=O)(=O)c1cn(C)cn1)O2`, the relative growth was inactive: 0.988. To `C[C@H]1CN([C@@H](C)CO)C(=O)c2cc(NC(=O)C3CC3)ccc2O[C@H]1CN(C)Cc1ccc(-c2ccccc2)cc1` belongs inactive: 0.955; to `C[C@@H]1CCCCO[C@@H](CN(C)Cc2ccc(Cl)c(Cl)c2)[C@H](C)CN([C@H](C)CO)C(=O)c2cc(NC(=O)CCC(F)(F)F)ccc2O1`, inactive: 0.998; to `COCCNC(=O)C[C@H]1CC[C@@H]2[C@H](COc3ccc(NS(=O)(=O)c4ccc(Cl)cc4)cc3C(=O)N2C)O1`, inactive: 0.999.

For `C[C@@H]1CCCCO[C@@H](CN(C)S(=O)(=O)c2ccc(F)cc2)[C@@H](C)CN([C@@H](C)CO)C(=O)c2cc(NC(=O)Nc3ccc4c(c3)OCO4)ccc2O1`, the relative growth is inactive: 1.01.

Take `CN(C)CC(=O)N[C@H]1CC[C@@H](CCNC(=O)C2CCC2)O[C@@H]1CO`: the relative growth is inactive: 1.

On to `CCC(=O)Nc1ccc2c(c1)C(=O)N(C)C[C@H](OC)[C@@H](C)CN(C(=O)CN1CCOCC1)[C@H](C)CO2`, for which the relative growth is inactive: 0.982. As to `NCC1(c2cccs2)CCCC1`, the relative growth was inactive: 0.951.

As to `C[C@@H]1CN([C@H](C)CO)C(=O)c2cc(NC(=O)c3ccccc3)ccc2O[C@@H](C)CCCCO[C@H]1CN(C)S(=O)(=O)c1ccc(F)cc1`, the relative growth is inactive: 1.04.

For the compound `C[C@H]1CN([C@@H](C)CO)C(=O)c2cccc(NS(C)(=O)=O)c2O[C@H]1CN(C)S(=O)(=O)c1cn(C)cn1`, the relative growth was inactive: 1.02. Turning to `Cc1noc(C)c1NC(=O)N(C)C[C@@H]1OCCCC[C@@H](C)Oc2ccc(NC(=O)Nc3ccccc3)cc2C(=O)N([C@@H](C)CO)C[C@H]1C`, the relative growth is inactive: 0.984. Consider `N[C@@H](CC(=O)O)c1cccc(O)c1`, for which the relative growth was inactive: 0.992. With `Nc1nc(-c2ccccc2)cc[n+]1[O-]`, the relative growth is inactive: 0.844.

As for `CC(C)NC(=O)Nc1ccc2c(c1)C(=O)N([C@H](C)CO)C[C@@H](C)[C@@H](CN(C)Cc1ccc3c(c1)OCO3)O2`, the relative growth was inactive: 0.976. In the case of `CC1(C)[C@H]2C[C@@H](O[C@H]3O[C@@H](CO)[C@@H](O)[C@@H](O)[C@@H]3O)[C@@]1(C)C[C@@H]2O`, the relative growth was inactive: 0.988.

For the compound `COCC#Cc1cnc2c(c1)C(=O)N([C@H](C)CO)C[C@H](C)[C@H](CN(C)C(=O)Nc1cc(F)ccc1F)O2`, the relative growth is inactive: 0.976. `Cc1cc(C(=O)Nc2cccc3c2O[C@@H](CN(C)C(=O)NC2CCCCC2)[C@H](C)CN([C@H](C)CO)C3=O)n(C)n1`: the relative growth is inactive: 0.983. `Cc1ccc(S(=O)(=O)N(C)C[C@H]2Oc3ccc(NS(=O)(=O)c4cccs4)cc3C(=O)N([C@@H](C)CO)C[C@@H]2C)cc1`: the relative growth is inactive: 0.994. For `C[C@@H]1CCCCO[C@H](CN(C)C(=O)NC2CCCCC2)[C@H](C)CN([C@H](C)CO)C(=O)c2cc(NC(=O)Nc3ccc(F)cc3)ccc2O1`, the relative growth was inactive: 1.03.

Regarding `C[C@H](CO)N1C[C@H](C)[C@@H](CN(C)CC2CCCCC2)Oc2c(NS(=O)(=O)c3cn(C)cn3)cccc2C1=O`, the relative growth was inactive: 1.01. Turning to `CC(C)NC(=O)N(C)C[C@@H]1Oc2cc(-c3ccccc3F)ccc2S(=O)(=O)N([C@@H](C)CO)C[C@H]1C`, the relative growth is inactive: 0.917.

As for `CC(C)NC(=O)Nc1ccc2c(c1)CC(=O)N([C@@H](C)CO)C[C@H](C)[C@@H](CN(C)C(=O)NC1CCCCC1)O2`, the relative growth was inactive: 1. As to `Cc1noc(C)c1NC(=O)N(C)C[C@H]1Oc2c(NC(=O)c3ccc(-c4nccs4)cc3)cccc2C(=O)N([C@H](C)CO)C[C@@H]1C`, the relative growth was inactive: 0.997.

Take `C[N+](C)(CCOc1ccccc1)Cc1ccccc1.O=C(O)c1cc2ccccc2c(Br)c1O`: the relative growth was inactive: 0.944.

In the case of `CC(C)CC#Cc1ccc2c(c1)O[C@H](CN(C)S(=O)(=O)c1ccc(F)cc1)[C@@H](C)CN([C@@H](C)CO)S2(=O)=O`, the relative growth was inactive: 1.02.

As to `CN1CCN(C)C2(CCN(C(=O)c3ccn[nH]3)CC2)C1=O`, the relative growth was inactive: 0.992.

As to `C[C@@H]1CN([C@@H](C)CO)C(=O)c2cc(NS(C)(=O)=O)ccc2O[C@@H](C)CCCCO[C@H]1CN(C)S(=O)(=O)c1cccs1`, the relative growth is inactive: 1.01. For the compound `Cc1noc(C)c1S(=O)(=O)N(C)C[C@@H]1OCCCC[C@H](C)Oc2ccc(NC(=O)Nc3ccc(C(F)(F)F)cc3)cc2C(=O)N([C@H](C)CO)C[C@H]1C`, the relative growth was inactive: 1.02. In the case of `CCN(CC)CCOc1ccc(Nc2ncc3cc(-c4c(Cl)cccc4Cl)c(=O)n(C)c3n2)cc1`, the relative growth was inactive: 1.01. Take `COCC(=O)Nc1ccc2c(c1)C(=O)N(C)C[C@@H](OC)[C@H](C)CN(Cc1cccc(F)c1)[C@@H](C)CO2`: the relative growth was inactive: 0.972.
